Where “and” joins values, the source holds several entries; their conditions need not be identical. Equal entries are not always repeated. The campaign covered roughly 270,000 compounds. About 5,800 (2.1%) were called active. The shares of active, inactive and inconclusive entries below differ from those in the screen. Calls come from the whole dose curve; as a rule, active = well fitted inhibition curve with a large enough effect; inconclusive = small, poorly fitted or top-dose-only effect; inactive = flat fitted curve, though single readings scatter. A potency beside an inconclusive call is a rough fit, not a confirmed value. A structure can be active in one record and inactive in another.
The compounds below were run against Microtubule-associated protein tau (Homo sapiens) (UniProt P10636) (assay: qHTS for Inhibitors of Tau Fibril Formation, Thioflavin T Binding). Settings: recombinant tau K18 P301L (four-repeat tau fragment), heparin-induced fibrillization, ThT fluorescence; series mostly up to 57.4 µM; activity, negative = inhibition: at the top concentration.
Outline: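 Heparin-induced (20 uM) aggregation of recombinant human K18 P301L tau, 15 uM unlabeled with 0.24 uM labeled, pH 7 acetate buffer, 6 hr at 37 C with compound. Fibrils quantified by 30 uM ThT fluorescence after 1 hr ambient incubation.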
% is set by controls: 0 for no effect and ±100 for the full control effect; potency is the fitted concentration of half-maximal effect; tags give direction and shape of the fitted curve.
Note: nearly all actives have a fitted effect of over 55% in size.

UniProt P10636, sequence (P10636 whole entry, looked up, the tested form may be a part): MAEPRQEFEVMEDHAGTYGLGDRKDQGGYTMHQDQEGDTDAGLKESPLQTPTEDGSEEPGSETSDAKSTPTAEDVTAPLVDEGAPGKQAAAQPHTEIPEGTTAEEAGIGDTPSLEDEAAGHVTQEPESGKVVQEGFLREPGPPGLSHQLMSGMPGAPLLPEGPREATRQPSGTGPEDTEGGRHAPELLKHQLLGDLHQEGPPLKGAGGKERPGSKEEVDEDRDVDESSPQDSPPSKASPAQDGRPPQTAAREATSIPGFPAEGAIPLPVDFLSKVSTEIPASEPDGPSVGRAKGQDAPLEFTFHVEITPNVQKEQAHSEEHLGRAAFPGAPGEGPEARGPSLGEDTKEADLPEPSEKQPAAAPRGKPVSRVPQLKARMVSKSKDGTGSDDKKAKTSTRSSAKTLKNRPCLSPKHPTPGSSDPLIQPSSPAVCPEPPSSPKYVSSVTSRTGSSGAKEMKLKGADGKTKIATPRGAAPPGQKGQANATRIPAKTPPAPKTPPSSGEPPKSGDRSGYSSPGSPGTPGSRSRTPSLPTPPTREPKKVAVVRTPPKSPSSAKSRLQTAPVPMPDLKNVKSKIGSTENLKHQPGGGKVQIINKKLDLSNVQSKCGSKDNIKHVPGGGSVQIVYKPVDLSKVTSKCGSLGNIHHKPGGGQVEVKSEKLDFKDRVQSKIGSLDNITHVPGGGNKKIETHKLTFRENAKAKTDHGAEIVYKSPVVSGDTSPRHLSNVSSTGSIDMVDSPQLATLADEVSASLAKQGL

| SMILES | Potency | activity, negative = inhibition |
| --- | --- | --- |
| O=C(CCN1CCOCC1)N/N=C/c1cc(Br)cc(Br)c1O | inconclusive: 15.8 µM [inhibitor, partial curve] | – |
| Cc1cccc(C)c1NC(=O)CSc1nnc(-c2ccco2)c(-c2ccco2)n1 | active: 25.1 µM | – |
| Cc1noc(C)c1C(=O)NNc1ccc(C(C)C)cc1 | inconclusive: 35.5 µM [inhibitor, single point] | – |
| C=CCN(CC=C)c1nc2ccccc2nc1C(C#N)C(=O)OC(C)C (centres undefined) | inconclusive: 28.2 µM [inhibitor, partial curve] | – |
| CCOC(=O)c1c(NC(=O)c2nc3n(n2)C(C(F)F)CC(C)N3)sc2c1CCCC2 (centres undefined) | inconclusive: 31.6 µM [inhibitor, single point] | – |
| COC(=O)c1ccc(NC(=O)CN2CCN(c3ccccc3C)CC2)cc1 | inconclusive: 35.5 µM [inhibitor, single point] | – |
| CCN(C(=O)C1CCN(S(=O)(=O)c2c(C)noc2/C=C/c2ccc(C)cc2)CC1)c1cccc(C)c1 | – | inactive: -13.9% |
| CCOC(=O)N1CCN(C(=O)CS(=O)Cc2nc(-c3ccc(C)cc3)oc2C)CC1 (centres undefined) | inconclusive: 31.6 µM [inhibitor, single point] | – |
| Cc1ccc(N2C(=O)CC(NCC3CCCO3)C2=O)cc1 (centres undefined) | – | inactive: -9.41% |
| COc1cc(C(=O)OCC(=O)Nc2ccc3c(c2)OC(F)(F)O3)ccc1OCc1c(C)noc1C | inconclusive: 31.6 µM [inhibitor, single point] | – |
| Cc1ccc2c(c1)c1ncnc(N3CCC4(CC3)OCCO4)c1n2C | inconclusive: 28.2 µM [inhibitor, single point] | – |
| CC(C)c1ccccc1-n1c(SCC(=O)N2CCN(c3ccccc3)CC2)nnc1-c1cccnc1 | inconclusive: 35.5 µM [inhibitor, partial curve] | – |
| CCN1C(=O)/C(=C\c2ccncc2)SC1=Nc1ccc(C)c(C)c1 | inconclusive: 25.1 µM [inhibitor, single point] | – |
| S=C(S)O[C@@H]1C[C@@H]2C[C@H]1[C@@H]1CCC[C@H]21 | inconclusive: 15.8 µM [inhibitor, partial curve] | – |
| O=C(CSc1nnc(-c2ccco2)n1CC1CCCO1)NC1CCCC1 (centres undefined) | – | inactive: -4.22% |
| COc1ccc2c(c1)-c1c(ssc1=S)C(C)(C)N2 | active: 14.1 µM | – |
| COc1cc(/C=C/C(=O)C2C(=O)C=C(C)OC2=O)cc(OC)c1O (centres undefined) | inconclusive: 14.1 µM [inhibitor, partial curve] | – |
| COC(=O)CSc1nc2cc(OC)ccc2cc1C#N | inconclusive: 2.51 µM [inhibitor, full curve] | – |
| COc1cc(NC(=O)C2CCN(c3cnccn3)CC2)cc(OC)c1 | – | inactive: 0.931% |
| O=C(COc1ccc2ccc(=O)oc2c1)Nc1ccc(N2CCOCC2)cc1 | inconclusive: 2 µM [inhibitor, full curve] | – |
| CCc1nnc(NC(=O)CSc2ccc(-c3cccs3)nn2)s1 | inconclusive: 5.01 µM [inhibitor, partial curve] | – |
| O=c1oc2ccccc2c(Nc2cccc3ccccc23)c1[N+](=O)[O-] | inconclusive: 15.8 µM [inhibitor, partial curve] | – |
| CCOc1ccc(NC(=O)c2cc3c(C)nc4ccccc4c3o2)cc1 | inconclusive: 0.794 µM [inhibitor, full curve, poor fit] | – |

| SMILES | Potency | activity, negative = inhibition |
| --- | --- | --- |
| O=C(O)CCN1C(=O)NC2(CCCC2)C1=O | – | inactive: 3.49% |
| COc1cccc(N2C(=O)C3C(C2=O)C3(c2ccccc2)c2ccccc2)c1 (centres undefined) | inconclusive: 39.8 µM [inhibitor, partial curve] | – |
| CCOc1cc(/C=C/c2ccc3cccc([N+](=O)[O-])c3n2)ccc1OCC(=O)N(C)C | active: 7.08 µM | – |
| Brc1ccc(/C=N/Nc2nncc(-c3ccccc3)n2)o1 | inconclusive: 5.62 µM [inhibitor, partial curve] | – |
| CC(=O)c1ccc(NC(=O)CSc2nc(=O)n(Cc3ccccn3)c3c2CCC3)cc1 | – | inactive: -3.22% |
| CS(=O)(=O)c1ncc(Cl)c(C(=O)Nc2ccc3ccccc3c2)n1 | inconclusive: 11.2 µM [inhibitor, partial curve] | – |
| O=C(NC(=S)Nn1cnc2c(cnn2-c2ccccc2)c1=O)c1ccccc1 | – | inactive: -3.9% |
| COc1ccc([C@@H]2[C@H]3CN(C(C)=O)CC=C3C(C#N)=C(N)C2(C#N)C#N)c2ccccc12 | inconclusive: 31.6 µM [inhibitor, partial curve] | – |
| Cc1nn2c(COc3ccc(NC(=O)C(C)C)cc3)nnc2c2ccccc12 | inconclusive: 28.2 µM [inhibitor, partial curve, poor fit] | – |
| CC(=O)Nc1ccc(S(=O)(=O)Nc2nnc(CC(C)(C)C)s2)cc1 | active: 3.98 µM | – |
| CCn1c(Cc2ccccc2)n[nH]c1=S | – | inactive: -5.64% |
| COc1ccc(OC)c(-n2c(CNC3CCN(Cc4ccccc4)CC3)nc3ccccc3c2=O)c1 | – | inactive: -22.1% |
| COc1cccc(C(=O)/C(C#N)=N/Nc2cccc(-c3ccnc(C)n3)c2)c1 | active: 5.01 µM | – |
| O=C(NCCCN1CCCCCC1)c1ccc2c(Cl)c3c(nc2c1)CCCC3 | inconclusive: 12.6 µM [inhibitor, partial curve] | – |
| CCOc1ccc2[nH]c(=O)c(C(c3nnnn3Cc3ccco3)N3CCC(C)CC3)cc2c1 (centres undefined) | inconclusive: 39.8 µM [inhibitor, single point] | – |
| CCCCN(CCCC)S(=O)(=O)c1ccc(NS(=O)(=O)c2ccc(NC(C)=O)cc2)cc1 | inconclusive: 22.4 µM [activator, single point] | – |
| N#Cc1ccc(/C=C/C(=O)c2cccnc2)cc1 | inconclusive: 14.1 µM [inhibitor, partial curve] | – |
| CC1CCCCC12NC(=O)N(CC(=O)c1ccc[nH]1)C2=O (centres undefined) | inconclusive: 35.5 µM [inhibitor, partial curve] | – |
| CCCCc1ccc(NS(=O)(=O)c2cc3c4c(c2)CC(=O)N4CCC3)cc1 | inconclusive: 28.2 µM [inhibitor, single point] | – |
| Cc1ccc(-c2cc(O)cc3sc(=O)oc23)cc1C | inconclusive: 39.8 µM [inhibitor, single point] | – |
| Cc1ccc(C)c(NC(=S)NCCc2c[nH]c3ccccc23)c1 | inconclusive: 39.8 µM [inhibitor, single point] | – |
| COc1ccc(CNc2ccc(C)c(C)c2)cc1 | inconclusive: 0.316 µM [inhibitor, full curve, poor fit] | – |
| CCOC(=O)c1ccc2c(c1)nc(COc1ccc3ccccc3c1)n2CC | inconclusive: 14.1 µM [inhibitor, partial curve] | – |

| SMILES | Potency | activity, negative = inhibition |
| --- | --- | --- |
| O=C(O)CCC(=O)NNC(=O)CCCOc1ccc(Cl)cc1Cl | – | inactive: -7.5% |
| CC1(OC(=O)CCc2ccccc2)C(=O)C=C2C=C(c3ccc(C#N)cc3)N(c3ccccc3)C=C2C1=O (centres undefined) | active: 12.6 µM | inactive: -0.233% [at 11.5 µM] |
| CC(C)(C)OC(=O)N1CC=C2C(C#N)=C(N)C(C#N)(C#N)[C@H](c3cccnc3)[C@H]2C1 | inconclusive: 22.4 µM [inhibitor, single point] | – |
| CCOC(=O)c1sc2nc(C)nc(NCCc3ccccn3)c2c1C | inconclusive: 31.6 µM [inhibitor, partial curve] | – |
| CN(C)c1ccc(CNC(=O)CN2C(=O)C3CCCCN3c3ccc(C(=O)N4CCCC4)cc32)cc1 (centres undefined) | – | inactive: -8.9% |
| CCC(=O)N1CCc2cc(S(=O)(=O)NC(CC(C)C)C(=O)Nc3cccc(C)c3C)ccc21 (centres undefined) | – | inactive: -11.7% |
| CC(=O)/C=C(\C)Nc1ccc(-c2cnc(-c3ccccc3)o2)cc1 | inconclusive: 11.2 µM [inhibitor, partial curve] | – |
| O=C(Nc1ccccn1)c1ccco1 | – | inactive: -9.25% |
| Cc1ccc(N(CCC#N)C(=O)CCl)cc1C | – | inactive: 0.379% |
| O=C(CCc1ccccc1)NC1CC(=O)N(c2cccc(F)c2)C1 (centres undefined) | – | inactive: -2.5% |
| O=[N+]([O-])c1ccccc1NCCNS(=O)(=O)c1ccc(Cl)cc1 | – | inactive: -9.78% |
| Cc1ccc(-c2cc(-c3ccccc3)c(C#N)c(N)n2)o1 | inconclusive: 22.4 µM [inhibitor, partial curve] | – |
| Cc1ccccc1NC(=O)Cn1cnc2c(oc3nc4c(cc32)COC(C)(C)C4)c1=O | – | inactive: 3.63% |
| COc1ccc(CCNc2ncnc3c2cnn3-c2ccc(C)c(Cl)c2)cc1 | inconclusive: 0.224 µM [inhibitor, full curve, poor fit] | – |
| CCc1cc(C(=O)COc2ccccc2F)c(O)cc1O | inconclusive: 15.8 µM [inhibitor, partial curve] | – |
| CC(=O)OC[C@@H]1O[C@H](CCO/N=C\[C@@H](C)[C@H](OCc2ccccc2)C(C)C)C=C[C@@H]1OC(C)=O | – | inactive: -7.06% [at 11.5 µM] |
| Cc1cc(C)cc(NC(=O)CSc2ccc(-c3cccs3)nn2)c1 | inconclusive: 17.8 µM [inhibitor, partial curve] and inconclusive: 7.94 µM [inhibitor, partial curve] | – |
| CC(=O)N(C(C)=O)N1C(=O)C2C3c4ccccc4C(c4ccccc43)C2C1=O (centres undefined) | inconclusive: 15.8 µM [inhibitor, partial curve] | – |
| Cc1nnc(SCC(=O)N2N=C(c3ccc(Cl)cc3)CC2c2ccco2)[nH]c1=O (centres undefined) | inconclusive: 11.2 µM [inhibitor, partial curve] | – |
| CCOC(=O)c1ccc2ncc(C(=O)OCC)c(Nc3ccc(N4CCOCC4)cc3)c2c1 | inconclusive: 22.4 µM [inhibitor, partial curve] | – |
| COc1ccc(Oc2cc(C)c3cccc(C)c3n2)cc1 | inconclusive: 22.4 µM [inhibitor, partial curve] | – |
| CC1(C)C(c2ccccc2)=[N+]([O-])CN1O | – | inactive: 1.39% |
